Assay results: the BET-seq Pho4 binding data (Le et al. 2018)
The list shows a part of the results. These are noisy estimates, calculated here from bound and input reads.

What follows are sequences tested against T1, Pho4 (S. cerevisiae) (UniProt P07270) (assay: relative binding free energy (BET-seq); higher = weaker binding). Details: reference: library average.
T1 sequence: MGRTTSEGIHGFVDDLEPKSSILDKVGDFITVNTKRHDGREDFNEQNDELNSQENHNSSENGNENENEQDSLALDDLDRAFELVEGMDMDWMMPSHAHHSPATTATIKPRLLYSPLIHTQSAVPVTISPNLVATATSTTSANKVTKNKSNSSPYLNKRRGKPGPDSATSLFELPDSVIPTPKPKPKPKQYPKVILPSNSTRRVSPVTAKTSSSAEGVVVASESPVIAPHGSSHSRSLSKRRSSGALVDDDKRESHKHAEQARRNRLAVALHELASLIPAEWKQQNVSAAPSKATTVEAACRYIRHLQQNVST

Relative binding free energy, -0.08 kcal/mol:
TCGGCCACGTGGAGTG, CACTGCACGTGTGGGG, GTTAACACGTGGTTAT, GTCCGCACGTGGTAGG

Relative binding free energy, -0.31 kcal/mol:
TAGGGCACGTGGGGAG, CTTGGCACGTGGGGTC

Relative binding free energy, 0.2 kcal/mol:
GGTTACACGTGGCCTG, TTTCTCACGTGGTAGA, AGGGTCACGTGATCAT, ACATTCACGTGGGGCG, CTTTTCACGTGGTCAG, CGTTTCACGTGGATTA

Relative binding free energy, 0.08 kcal/mol:
TGGAGCACGTGTACTG, TTATACACGTGTGGGG, GCGGGCACGTGATTGT

Relative binding free energy, -0.15 kcal/mol:
TTGGGCACGTGGTTAG

Relative binding free energy, 0.21 kcal/mol:
TTGTTCACGTGACTAT, TGATTCACGTGGGGCG, GGTTTCACGTGCGTTT, TCTATCACGTGTGAGT, ATTGTCACGTGATAGA

Relative binding free energy, 0.04 kcal/mol:
TGCGTCACGTGGTTTT, TGTGACACGTGTGTAT, AGTCACACGTGGGTTG, GTTCGCACGTGTGCTT, CTGGTCACGTGGAGGT

Relative binding free energy, -0.11 kcal/mol:
TCTTGCACGTGTGTAT, AGTTGCACGTGGTCTA, GCATGCACGTGGTGCG, GGGGGCACGTGTCCTT, TGGTGCACGTGGCGTG, TGTAGCACGTGGATGT

Relative binding free energy, 0.19 kcal/mol:
GGGCGCACGTGAAGCG, TGTATCACGTGCTCGG, TTCGTCACGTGATAAT, TACTTCACGTGGGCTT, TCTTACACGTGTGAGT

Relative binding free energy, 0.03 kcal/mol:
GTGTCCACGTGTATGG

Relative binding free energy, 0.36 kcal/mol:
TATGACACGTGAAATT

Relative binding free energy, 0.25 kcal/mol:
TGGCACACGTGAGTGC, TGGATCACGTGTGTCA, TTTTTCACGTGGCCTG

Relative binding free energy, -0.09 kcal/mol:
CGTGGCACGTGACGTG

Relative binding free energy, -0.12 kcal/mol:
GTGGGCACGTGGTCAT, GTCTGCACGTGGGTTA, CTGGCCACGTGTTGTT, ATAAGCACGTGGATGT

Relative binding free energy, -0.28 kcal/mol:
AGGAGCACGTGGCAGG

Relative binding free energy, -0.04 kcal/mol:
CTAAACACGTGTGGGT, GTAATCACGTGGTAAT, TTCGTCACGTGGGAGG, GGTTCCACGTGGTCGG, ATAAACACGTGGGTGC, ACGGTCACGTGGGCTT, TTGTACACGTGGGGAA, CAGAGCACGTGTGGGG, CGTGTCACGTGGGGGG, TATCGCACGTGTTTAA

Relative binding free energy, 0.17 kcal/mol:
GGCTACACGTGTTGTT, TAGTTCACGTGGTAAA, TCAATCACGTGTGGGG, AGTGACACGTGAGAGG, TGAGACACGTGTCGTT

Relative binding free energy, -0.14 kcal/mol:
TTTGGCACGTGGGAGT, ATGCGCACGTGTGTAT, TTTGGCACGTGTCGCA

Relative binding free energy, 0.26 kcal/mol:
GTTATCACGTGAGTTC, ATTATCACGTGTAAAG, GATTTCACGTGTGTTT

Relative binding free energy, 0.23 kcal/mol:
TATTACACGTGAAGGT, AGGTTCACGTGTCAGG, ACTATCACGTGGTTTT

Relative binding free energy, 0.4 kcal/mol:
GACTTCACGTGGATGG, TTGTTCACGTGATTAC

Relative binding free energy, 0.16 kcal/mol:
GTATTCACGTGGGCTA, GTAGTCACGTGGTAGC, TTAGTCACGTGGGAAC

Relative binding free energy, 0.11 kcal/mol:
GTTAACACGTGTGCAT, GATGTCACGTGCAGTG, ACTAGCACGTGTGAGT, GGTGGCACGTGAGGTC

Relative binding free energy, 0.29 kcal/mol:
GAGAACACGTGAGTGT, TATATCACGTGAAGGT, CGATTCACGTGTGGTG, GAGTTCACGTGGTGGG, AGAGTCACGTGATAGA

Relative binding free energy, -0.17 kcal/mol:
TAGTGCACGTGGGTTG

Relative binding free energy, -0.02 kcal/mol:
TTCAGCACGTGTGAGG, GGAGACACGTGGTCAG, GATGGCACGTGCGTTA, TAAGACACGTGTGTAT, CGTGGCACGTGTCGTA, CAGTGCACGTGGTTAA, TTGCGCACGTGTAAGG, CGGGTCACGTGGCGTA

Relative binding free energy, -0.26 kcal/mol:
TTATGCACGTGCGCGT

Relative binding free energy, 0.22 kcal/mol:
GTGTTCACGTGCGGCG

Relative binding free energy, 0.35 kcal/mol:
CTTGACACGTGAGGAG

Relative binding free energy, 0.18 kcal/mol:
TGGGTCACGTGTGAGA, GTGAACACGTGGCTGG, GGATCCACGTGTGGGC

Relative binding free energy, 0.01 kcal/mol:
GTGTCCACGTGGCTTG

Relative binding free energy, 0 kcal/mol:
TCGGGCACGTGGAATT, TTGTACACGTGGCCGG, AGTAGCACGTGTGGAG, TGAGGCACGTGGATCT, TATGGCACGTGTCCGG

Relative binding free energy, 0.38 kcal/mol:
GGTTTCACGTGTTCAT

Relative binding free energy, -0.01 kcal/mol:
GTTAGCACGTGTCAGT, TATGGCACGTGTTAGC, GGTGGCACGTGATGCA

Relative binding free energy, -0.05 kcal/mol:
ATGGTCACGTGCAGTT, TGGTGCACGTGCTTGA, CGGATCACGTGGGCGT, CGATGCACGTGTGCGG, TATAACACGTGTTGCG, TGTCGCACGTGGTAAA

Relative binding free energy, 0.37 kcal/mol:
ACGTTCACGTGAGTAG

Relative binding free energy, 0.34 kcal/mol:
TGATTCACGTGTTACT

Relative binding free energy, 0.28 kcal/mol:
GTATTCACGTGTTTGG, TGGGTCACGTGAAGCT

Relative binding free energy, 0.33 kcal/mol:
GGGTCCACGTGAGTTT, AAGTTCACGTGTCGGA

Relative binding free energy, -0.27 kcal/mol:
CGTGGCACGTGGGATA, AGCGGCACGTGGGTGA

Relative binding free energy, 0.31 kcal/mol:
GTTTTCACGTGCAAGT, GTTTGCACGTGAATTC, GACTTCACGTGGAGGT

Relative binding free energy, 0.06 kcal/mol:
TTAATCACGTGGTGCG, GGGAACACGTGGTTTG, TTGTACACGTGCTTTG, TTTTACACGTGGGTAT, ATGAGCACGTGACTGT, GGGGCCACGTGTGGGA

Relative binding free energy, -0.16 kcal/mol:
TCGGTCACGTGGGGCT

Relative binding free energy, 0.24 kcal/mol:
TCGTTCACGTGGAATG, GAGAGCACGTGAGGTC, ACGTTCACGTGGAGGA, GAACGCACGTGAGGGT, CATAGCACGTGAGGGC

Relative binding free energy, -0.2 kcal/mol:
TATAGCACGTGGTCAT, CGAAGCACGTGGTGGG, TTTGGCACGTGCTTGC, TGACGCACGTGGTAGG, ATCAGCACGTGGGTGT

Relative binding free energy, 0.15 kcal/mol:
AGGCCCACGTGAGGGT, GTAGTCACGTGCAGTG, CGCGTCACGTGGATTG, AGGGTCACGTGTACAA, CGTGACACGTGAGGCT, ACGTTCACGTGGAGTG

Relative binding free energy, -0.21 kcal/mol:
AGTGGCACGTGGCATA

Relative binding free energy, 0.13 kcal/mol:
TTTATCACGTGTGCCT

Relative binding free energy, 0.32 kcal/mol:
ATATTCACGTGATTAG, TGTTTCACGTGAGCTC, ATGTTCACGTGTTATA, GGGGTCACGTGACGGT

Relative binding free energy, -0.18 kcal/mol:
GCACGCACGTGGTGGG, GTGTGCACGTGGGTGT

Relative binding free energy, 0.05 kcal/mol:
ATGTACACGTGGATCG, GTCATCACGTGGGGTG, ATTAGCACGTGATGGA, CTTGTCACGTGCGTGA, AGAGGCACGTGAAGCG, TTTTGCACGTGTGTCA, ACAGTCACGTGGGATA, TAGGTCACGTGTAGGA

Relative binding free energy, 0.47 kcal/mol:
GAGTGCACGTGAATGA

Relative binding free energy, 0.27 kcal/mol:
GTAATCACGTGTGACT, TTTTTCACGTGCTTAG, CGGTTCACGTGTTCGG, TGGTTCACGTGAGCGT, TGTTACACGTGTCGTT, GTGTTCACGTGGATTT

Relative binding free energy, -0.13 kcal/mol:
ATGTGCACGTGTAGAA, AGGGGCACGTGGTTGG

Relative binding free energy, -0.06 kcal/mol:
TGGGGCACGTGTTTCA, AAGGTCACGTGGTCTG, TTAGACACGTGTTTGA, TCTGTCACGTGGGATG, ATGGCCACGTGGAGGC, GCAGGCACGTGTGGGT, TTGTGCACGTGTTGCT, AAGTGCACGTGGGGTC

Relative binding free energy, 0.1 kcal/mol:
ATTGTCACGTGCGATT, TCTGTCACGTGGTGAC

Relative binding free energy, 0.09 kcal/mol:
GTTGACACGTGCGGTT, TGGTTCACGTGGCCGT

Relative binding free energy, -0.23 kcal/mol:
GAGCGCACGTGGCGGG, GGGGGCACGTGGCACA, CGTCACACGTGGTGTG, GGTACCACGTGGGGGA

Relative binding free energy, 0.07 kcal/mol:
TGTTACACGTGGCAAG, AAAATCACGTGGTGTT, GGGTACACGTGTGTGC

Relative binding free energy, 0.41 kcal/mol:
CTGTTCACGTGATATT

Relative binding free energy, 0.3 kcal/mol:
TTGTTCACGTGGATGG, TGGAACACGTGAGTAG, AGATTCACGTGTGGGC

Relative binding free energy, -0.1 kcal/mol:
AGTGGCACGTGTGGCC, GGGGGCACGTGGTAGA, TTATACACGTGGGTTC, GGCGCCACGTGGTGGT

Relative binding free energy, -0.07 kcal/mol:
AATAACACGTGGGATG, CGTGGCACGTGTGCTT, CTGTGCACGTGAGTGT, TTGAACACGTGGGATG, AAACACACGTGGGGGT, TTTAGCACGTGTTTAT

Relative binding free energy, 0.42 kcal/mol:
GGTTCCACGTGAGTTT

Relative binding free energy, 0.02 kcal/mol:
TTTACCACGTGCTGGT, GTGCGCACGTGTAGTA, TGTGGCACGTGAATAA, TGGACCACGTGTGTGT, AAGTGCACGTGTGTCG

Relative binding free energy, -0.03 kcal/mol:
TCTGACACGTGTTTGA, GGAGACACGTGGGTGA, TCGTGCACGTGGTAGG, GTGGCCACGTGGTAGT, GTAGGCACGTGTTTTG

Relative binding free energy, 0.12 kcal/mol:
TCGGACACGTGTGGGT, ATGTGCACGTGGATTT, TGATGCACGTGATTCT, TATTCCACGTGGCGGG, ATCGTCACGTGTTGGG

Relative binding free energy, 0.45 kcal/mol:
TGATTCACGTGAATCG, GTTCTCACGTGATCTG

Relative binding free energy, 0.14 kcal/mol:
TAGTTCACGTGGGTAG, GAAGTCACGTGCGGGT, GCTGGCACGTGATGGC
